The structures appear in SMILES notation. The list shows a part of the results. Shown are side measurements of this screen, not its main read-out; they come without a call. The list favours compounds with an active or inconclusive main result. The note in brackets gives the kind of curve behind each potency; many fits are weak.

In PubChem BioAssay (NCATS) one finds max response and AC50 data, which are given here for 25 compounds.

This experiment can be described thus: qHTS Assay for Lipid Storage Modulators (AID 1519). The settings on record: Drosophila S3 cells, BODIPY lipid droplet/cell ratio, laser cytometry, cells loaded with oleic acid. Put shortly:
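Cells seeded at 5,000 per well were treated with compounds over a concentration series and loaded with oleic acid (400 uM, as added). Lipid droplet fluorescence (488 nm excitation, 500-530 nm channel) was read by laser-scanning cytometry and normalized to 20 uM Triacsin C.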

The mark [1] stands for this setting: measured here: cell count channel max response.
The mark [2] stands for this setting: measured here: lipid (BODIPY) channel AC50.
Where [3] appears, read: measured here: lipid channel max response.
Setting [4] is: measured here: cell number channel AC50.
Tags describe the fitted curve by direction and shape.

One may read the AC50 as the concentration giving half of the maximal activity seen. On to `O=C(c1ccncc1)N1CCC2(CC1)CCN(c1ncccn1)CC2`, for which the max response worked out at 18.3% under setting [1] and 30.7% under setting [3]. Under setting [2], the concentration at half-maximal activity (AC50) was 4.47 µM [rising, partial curve].

For `COC(=O)CC1[C@@]2(C)C[C@]34OC5(C)OC6(C7CC(=O)OC(c8ccoc8)[C@]7(C)CCC6(O5)[C@]13C)C(OC(C)=O)[C@]4(OC(C)=O)C2OC(C)=O` (stereo not given in full), the max response stood at 22.3% under setting [1] and 36.1% under setting [3]. Further, under setting [2], the concentration at half-maximal activity (AC50) was 15.8 µM [rising, single point].

Consider `CN(C)c1ncc2nc(-c3ccccc3)c(=O)n(C)c2n1`, for which the max response under setting [1] turned out to be 11.5% and the max response under setting [3] amounted to 16.5%. For the same compound, the AC50 under setting [2] was 3.16 µM [rising, single point].

Turning to `C[C@](O)(C(=O)Nc1ccc(S(=O)(=O)c2ccccc2)cc1)C(F)(F)F`, the max response under setting [1] is -2.17% and the max response under setting [3] was -30.8%. In addition, the AC50 under setting [2] was 7.94 µM [falling, full curve, poor fit].

Consider `Cc1cc(=O)oc2cc(O)c(O)cc12`, for which the max response is 10.9% under setting [1] and 26.4% under setting [3]. Besides, the half-maximal activity concentration (AC50) under setting [2] was 3.16 µM [rising, full curve, poor fit].

With `C=NC(C(=O)NC1C(=O)N2C1SC(C)(C)C2C(=O)O)c1ccccc1` (stereo not given), the max response by setting is: under setting [1], 15.8%; under setting [3], 33.8%. For the same compound, the AC50 under setting [2] is 39.8 µM [rising, single point].

Take `COCCn1c(=O)c(-c2cccs2)nc2cnc(OC)nc21`: the max response is, setting by setting: under setting [1], -2.87%; under setting [3], -2.85%. Besides, under setting [4], the half-maximal activity concentration (AC50) is 3.16 µM [rising, single point].

In the case of `COc1ccccc1CNc1ncnc2ccc(-c3ccc(C(=O)N(C)C)cc3)cc12`, the max response worked out at 9.99% under setting [1] and 7.75% under setting [3]. The half-maximal activity concentration (AC50) under setting [2] is 1.58 µM [rising, full curve].

As for `COc1ccccc1CNc1ncnc2ccc(-c3cccc(NS(C)(=O)=O)c3)cc12`, the max response was -5.8% under setting [1] and -8.2% under setting [3]. Moreover, the AC50 under setting [2] was 0.562 µM [rising, single point].

In the case of `N#Cc1cccc(NC(=O)N2CC[C@@]3(CCCN(C(=O)c4cccc(F)c4)C3)C2)c1`, the max response under setting [1] came out at 21.7% and the max response under setting [3] came to 31.9%. Also, under setting [2], the half-maximal activity concentration (AC50) was 8.91 µM [rising, full curve, poor fit].

For `O=S(=O)(c1ccccc1)N1CCC2(CCCN(Cc3cc(C(F)(F)F)cc(C(F)(F)F)c3)C2)CC1`, the max response under setting [1] was -3.88% and the max response under setting [3] is -35.8%. Further, under setting [2], the AC50 is 3.55 µM [falling, full curve].

Consider `COc1ncc2nc(-c3cc(F)cc(F)c3)c(=O)n(Cc3cccs3)c2n1`, for which the max response under setting [1] worked out at 22.6% and the max response under setting [3] amounted to 14.1%. In addition, the AC50 under setting [2] was 2.51 µM [rising, partial curve].

Regarding `O=c1c(-c2ccc(F)cc2)nc2cnc(Oc3cccc(Cl)c3)nc2n1C[C@H]1CCCO1`, the max response is, setting by setting: under setting [1], -6.17%; under setting [3], -47.4%. In addition, the AC50 under setting [2] is 39.8 µM [falling, single point].

As for `COc1cccc(Cn2c(=O)cnc3cnc(Oc4cccc(Cl)c4)nc32)c1`, the max response reads like this: under setting [1], 20.2%; under setting [3], 29.5%. The AC50 under setting [2] was 0.0398 µM [rising, full curve, poor fit].

As for `O=C(/C=C/c1ccc2c(c1)OCO2)c1cccs1`, the max response was found to be 73.5% under setting [1] and 74% under setting [3]. In addition, the AC50 under setting [4] was 1.58 µM [rising, full curve].

Regarding `O=S(=O)(c1ccccc1)N1CCC2(CCCN(c3ccncc3)C2)CC1`, the max response under setting [1] was -25.7% and the max response under setting [3] was -71.4%. In addition, the concentration at half-maximal activity (AC50) under setting [2] is 39.8 µM [falling, single point].

Take `COc1ccccc1CN1CC2(CCN(S(=O)(=O)c3ccccc3)CC2)C1`: the max response is, setting by setting: under setting [1], 24.7%; under setting [3], 36.5%. The AC50 under setting [2] is 3.98 µM [rising, partial curve].

For the compound `N#CCCn1c(=O)cnc2cnc(OCc3ccccc3)nc21`, the max response reads like this: under setting [1], 27.3%; under setting [3], 39.4%. In addition, the AC50 under setting [2] is 2.51 µM [rising, partial curve].

Consider `O=c1c(-c2ccccc2)nc2cncnc2n1-c1ccccc1`, for which the max response was 25.9% under setting [1] and 32.9% under setting [3]. Under setting [2], the concentration at half-maximal activity (AC50) is 5.01 µM [rising, partial curve].

`COCCn1c(=O)c(-c2cccs2)nc2cnc(OCc3ccccc3)nc21`: the max response under setting [1] worked out at 21.7% and the max response under setting [3] stood at 26.5%. Besides, the AC50 under setting [2] is 0.0794 µM [rising, full curve, poor fit].

Take `Cc1nc2cnc(N3CCN(C)CC3)nc2n(CCc2ccccc2)c1=O`: the max response under setting [1] is 23.6% and the max response under setting [3] worked out at 30.5%. Moreover, the concentration at half-maximal activity (AC50) under setting [2] was 1.26 µM [rising, partial curve].

Take `CN(C)c1ccc(-c2cncnc2NCCN2CCOCC2)cc1`: the max response by setting is: under setting [1], 31.7%; under setting [3], 34.7%. Besides, under setting [2], the half-maximal activity concentration (AC50) was 2.82 µM [rising, full curve].

With `O=c1c2cc(O)c(O)cc2oc2cc(O)c(C3OC(CO)C(O)C(O)C3O)c(O)c12` (stereo not given), the max response reads like this: under setting [1], 17.7%; under setting [3], 36.5%. The concentration at half-maximal activity (AC50) under setting [2] was 39.8 µM [rising, single point].

For the compound `COc1ccccc1CCn1c(=O)c(-c2cccc(Cl)c2)nc2cncnc21`, the max response runs as follows: under setting [1], 14.7%; under setting [3], 21.5%. For the same compound, the half-maximal activity concentration (AC50) under setting [2] was 0.224 µM [rising, full curve, poor fit].

`COCCn1c(=O)c(-c2cc(F)cc(F)c2)nc2cnc(N3CCNCC3)nc21`: the max response worked out at 17.8% under setting [1] and 23.7% under setting [3]. Besides, under setting [2], the half-maximal activity concentration (AC50) was 0.0316 µM [rising, full curve, poor fit].
